Counter-ions that a name gives are not always drawn. This is one part of the list. The data scatter; read single values as rough. Non-standard residues stand in square brackets, D forms with d. Residues, ends and D or L forms follow the SMILES beside them. *: point of attachment. Sta = CC(C)C[C@H](N)[C@@H](O)CC(=O)O; Isovaleryl = CC(C)CC(=O)*
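Also: High-content imaging of ALDEFLUOR-stained cells with Hoechst-labelled nuclei in 384-well plates, triplicate wells, scored as Z-score against 0.1% DMSO vehicle, negative meaning fewer ALDHbr cells.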

The test system of one assay is SUM159. As to the kind of experiment: ALDHbr (CSC) cell proportion score relative to DMSO vehicle (ratio to DMSO); breast (SUM159) / gastric (MKN45) / pancreatic (PANC1) / colon cancer lines; ALDHbr cells have high ALDH activity and are rich in cancer stem cells (CSC); higher = more CSC (ALDHbr) cells remaining. The settings on record: 10 µM; 72 h.
In the case of `CC1(C)O[C@@H]2C[C@H]3[C@@H]4C[C@H](F)C5=CC(=O)CC[C@]5(C)[C@H]4[C@@H](O)C[C@]3(C)[C@]2(C(=O)CO)O1` [Flurandrenolide], the ALDHbr turned out to be 1.36.
Same read-out and setting: the figure for `CCCCNc1ccc(C(=O)OCCN(C)C)cc1` is 1.04.
For the molecule `O=C(O[C@@H]1C[C@@H]2C[C@H]3C[C@H](C1)N2CC3=O)c1c[nH]c2ccccc12` [Dolasetron mesilate], the ALDHbr was found to be 1.3.
Still for that read-out and setting: under `Cn1c(=O)c2c(ncn2CC(O)CO)n(C)c1=O` (stereo unspecified) [Diprophylline] stands 1.22.
As to `CC(=O)O[C@H]1C[C@@H]2CC[C@@H]3[C@H](CC[C@@]4(C)[C@H]3C[C@H]([N+]3(C)CCCCC3)[C@@H]4OC(C)=O)[C@@]2(C)C[C@@H]1N1CCCCC1` [Vecuronium bromide], the ALDHbr amounted to 0.876.
The same measure, in the same setting: under `Fc1ccc(C(c2ccc(F)cc2)N2CCN(C/C=C/c3ccccc3)CC2)cc1` [Flunarizine dihydrochloride] stands 1.38; under `C=C1c2cccc(O)c2C(O)=C2C(=O)[C@]3(O)C(O)=C(C(N)=O)C(=O)[C@@H](N(C)C)[C@@H]3[C@@H](O)[C@H]12` [Methacycline hydrochloride], 0.911; under `C[C@H](O)C(=O)Nc1c(I)c(C(=O)NC(CO)CO)c(I)c(C(=O)NC(CO)CO)c1I` [Iopamidol], 1.23.
Still for that read-out and setting: under `NNCCc1ccccc1` [Phenelzine sulfate] stands 0.993; under `COc1cc2nc(N(C)CCCNC(=O)C3CCCO3)nc(N)c2cc1OC` (stereo unspecified) [Alfuzosin hydrochloride], 0.964; under `C[C@]12CC[C@@H]3c4ccc(OS(=O)(=O)O)cc4CC[C@H]3[C@@H]1CCC2=O` [Estropipate], 1.17.
The same measure, in the same setting: the figure for `CO[C@@]1(NC(=O)CSCC#N)C(=O)N2C(C(=O)O)=C(CSc3nnnn3C)CS[C@@H]21` [Cefmetazole sodium salt] is 0.836.
`CCS(=O)(=O)CCn1c([N+](=O)[O-])cnc1C` [Tinidazole]: the ALDHbr was 1.11.
On the same count and under the same terms, the figure for `CC(C)NCC(O)c1ccc2ccccc2c1` (stereo unspecified) [Pronethalol hydrochloride] is 1.15; for `CCc1c(C)[nH]c2c1C(=O)C(CN1CCOCC1)CC2` (stereo unspecified) [Molindone hydrochloride] it is 0.909.

A further assay has as its system T84. Described as above. Particulars: 10 µM; 72 h.
As for `CN(C)[C@@H]1C(=O)C(C(=O)NCNCCCC[C@H](N)C(=O)O)=C(O)[C@@]2(O)C(=O)C3=C(O)c4c(O)cccc4[C@@](C)(O)[C@H]3C[C@@H]12` [Lymecycline], the ALDHbr turned out to be 1.02.
Still for that read-out and setting: the figure for `CC(C(=O)O)c1ccc(C(=O)c2ccccc2)s1` (stereo unspecified) [Tiaprofenic acid] is 0.93.
The same measure, in the same setting: under `CCN(CC)CCc1nc(-c2ccccc2)no1` [Oxalamine citrate salt] stands 0.908; under `Cc1cc(=O)oc2cc(O)ccc12` [Hymecromone], 1; under `NCCCCCC(=O)O` [Aminocaproic acid], 0.977.
Consider `CC1=Nc2ccc(Cl)cc2S(=O)(=O)N1` [Diazoxide], for which the ALDHbr worked out at 1.04.
Same read-out and setting: under `CC(Oc1c(Cl)cccc1Cl)C1=NCCN1` (stereo unspecified) [Lofexidine] stands 0.895; under `CC(=O)OCC1=C(C(=O)O)N2C(=O)[C@@H](NC(=O)Cc3cccs3)[C@H]2SC1` [Cephalothin sodium salt], 0.941; under `CC(C(=O)O)c1ccc2c(c1)[nH]c1ccc(Cl)cc12` (stereo unspecified) [Carprofen], 0.958.
Consider `CC(C)NC[C@H](O)COc1cccc2ccccc12` [(S)-propranolol hydrochloride], for which the ALDHbr amounted to 1.03.
The same measure, in the same setting: the figure for `CC(C)CC(=O)N[C@H](C(=O)N[C@H](C(=O)N[C@@H](CC(C)C)[C@@H](O)CC(=O)N[C@@H](C)C(=O)N[C@@H](CC(C)C)[C@@H](O)CC(=O)O)C(C)C)C(C)C` [Pepstatin A] (Isovaleryl-VV[Sta]A[Sta]-OH) is 1.08.
The same measure, in the same setting: under `COCCOC(=O)C1=C(C)NC(C)=C(C(=O)OC/C=C/c2ccccc2)C1c1cccc([N+](=O)[O-])c1` (stereo unspecified) [Cilnidipine] stands 1.28; under `CCOC(=O)C1=C[C@]2(CC)CCCN3CCc4c(n1c1ccccc41)[C@@H]32` [Vinpocetine], 0.898.
Still for that read-out and setting: the figure for `NS(=O)(=O)c1cc(C(=O)O)cc(N2CCCC2)c1Oc1ccccc1` [Piretanide] is 1.17; for `CN[C@@H]1[C@H](O[C@H]2[C@H](O[C@H]3[C@H](O)[C@@H](O)[C@H](N=C(N)N)[C@@H](O)[C@@H]3N=C(N)N)O[C@@H](C)[C@]2(O)C=O)O[C@@H](CO)[C@H](O)[C@H]1O` [Streptomycin sulfate] it is 1.07.
For the molecule `CN1CCC(=C2c3ccccc3CCc3sccc32)CC1` [Pizotifen malate], the ALDHbr came out at 0.83.
